Laboratory results from PubChem BioAssay AID588579 (National Center for Advancing Translational Sciences (NCATS), 2011).
Where “and” joins values, the source holds several entries; their conditions need not be identical. Equal entries are not always repeated. About 2,200 (0.55%) of roughly 400,000 compounds were called active. This list was built around the results that the source calls inconclusive (neither active nor inactive); the mix of calls is not that of the screen. The call rests on the fitted dose curve; in most records, active means well fitted inhibition curve with a large enough effect; inconclusive means small, poorly fitted or top-dose-only effect, or another doubt; inactive means no such curve, though single readings can be large or run the other way. Potencies of inconclusive entries are doubtful fits and often do not repeat.

These compounds were tested against DNA polymerase kappa (Homo sapiens) (UniProt Q9UBT6) (assay: qHTS for Inhibitors of Polymerase Kappa). Settings: purified Pol kappa, fluorescent DNA synthesis assay, 10 min; series mostly up to 107 µM.
Chain of UniProt Q9UBT6 (Q9UBT6 whole entry, looked up): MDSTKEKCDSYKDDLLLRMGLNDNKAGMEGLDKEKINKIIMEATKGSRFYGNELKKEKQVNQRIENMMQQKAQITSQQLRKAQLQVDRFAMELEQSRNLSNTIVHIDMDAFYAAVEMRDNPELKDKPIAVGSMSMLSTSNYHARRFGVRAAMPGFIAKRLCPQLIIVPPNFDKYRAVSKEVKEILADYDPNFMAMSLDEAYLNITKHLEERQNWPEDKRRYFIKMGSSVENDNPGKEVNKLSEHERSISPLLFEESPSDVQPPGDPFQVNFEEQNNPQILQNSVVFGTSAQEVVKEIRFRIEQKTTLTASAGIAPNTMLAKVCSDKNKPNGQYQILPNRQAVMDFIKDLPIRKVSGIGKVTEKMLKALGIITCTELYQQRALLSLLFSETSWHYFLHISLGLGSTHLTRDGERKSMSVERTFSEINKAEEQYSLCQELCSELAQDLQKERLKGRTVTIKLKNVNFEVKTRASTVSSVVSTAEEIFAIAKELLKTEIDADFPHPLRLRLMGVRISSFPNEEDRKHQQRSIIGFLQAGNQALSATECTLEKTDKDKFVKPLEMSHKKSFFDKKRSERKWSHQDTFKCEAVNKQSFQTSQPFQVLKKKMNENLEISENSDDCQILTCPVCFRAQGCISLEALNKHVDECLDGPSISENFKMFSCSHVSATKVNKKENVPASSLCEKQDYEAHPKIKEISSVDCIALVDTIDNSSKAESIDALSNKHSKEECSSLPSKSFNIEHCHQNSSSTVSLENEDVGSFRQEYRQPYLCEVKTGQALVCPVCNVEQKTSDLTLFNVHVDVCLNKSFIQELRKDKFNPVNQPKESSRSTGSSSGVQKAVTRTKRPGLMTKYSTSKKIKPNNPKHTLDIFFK
In short: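 10 nM Pol kappa preincubated 15 min at room temperature with compounds, then reaction started with substrate at 50 nM final. Fluorescence read kinetically at 0 and 10 min; buffer-only wells served as negative control.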
Potency means the concentration at half of the fitted maximal effect; tags describe the fitted curve by direction and shape.

Potency, active:
Cc1ccc(-c2nn(-c3ccccc3)cc2/C=C2\SC(=S)N(CCCCCC(=O)O)C2=O)o1 79.4 µM
COc1cc(O)c(C(C)=O)c(CC(=O)O)c1 12.6 µM
C=CCNC(=O)COC(=O)c1c2c(nc3ccccc13)CCC2 89.1 µM
COc1ccc(C(=O)OCC(=O)Nc2ncc([N+](=O)[O-])s2)cc1OC 22.4 µM
O=C(N/N=C/c1cn(Cc2cccc(F)c2)c2ccccc12)c1cc(O)cc(O)c1 7.08 µM
O=C(CSc1nc(-c2ccc(F)cc2)nc2c1Cc1ccccc1O2)Nc1cccc(C(=O)O)c1 8.91 µM
O=C(Nc1n[nH]c(=S)s1)c1ccco1 56.2 µM
CN=c1scc(C)n1/N=C/c1ccc(O)c(O)c1O 12.6 µM

Potency, inconclusive:
CC1=C(/C=C/C(=C/C=C/C(C)=C/C(=O)O)c2ccc(C)cc2)C(C)(C)CCC1 31.6 µM [inhibitor, partial curve, poor fit]
O=C(O)CCC(=O)N(Cc1cccs1)Cc1cccs1 89.1 µM [inhibitor, single point]
CCOc1cc([N+](=O)[O-])cc(/C=C2/NC(=O)N(Cc3ccccc3F)C2=O)c1O 89.1 µM [inhibitor, partial curve, poor fit]
Cc1ccc(Oc2c(CO)c(-c3ccccc3)nn2C)cc1 89.1 µM [inhibitor, partial curve, poor fit]
COc1cc(OC)cc(-c2c(C#Cc3ccsc3)c3cc(-c4cccc5[nH]cc(C=O)c45)ccc3n2C)c1 50.1 µM [inhibitor, partial curve, poor fit]
O=C(O)CCc1ccc(S(=O)(=O)Nc2cc(C(F)(F)F)ccc2N2CCCC2)cc1 100 µM [inhibitor, single point]
Cc1ccc(S(=O)(=O)Nn2c(C)ccc2C)cc1 89.1 µM [inhibitor, single point]
CCCN(CCC)CCCNC(=O)c1cc2c(-c3ccc(OC)c(OC)c3)nn(C)c2s1 89.1 µM [inhibitor, partial curve, poor fit] and 50.1 µM [inhibitor, partial curve, poor fit]
COC(=O)CC1C(C)(C)C(OC(C)=O)C2[C@H](OC(C)=O)[C@]34O[C@]2(O)[C@]1(C)C3CC[C@]1(C)C4=CC(=O)OC1c1ccoc1 (stereo not given in full) 25.1 µM [inhibitor, partial curve, poor fit]
CCCOc1ccc(C(=O)OCCN(CC)CC)cc1N 100 µM [inhibitor, single point]
Cc1ccc(/C=C2\SC(=S)N(C3CCS(=O)(=O)C3)C2=O)o1 (stereo not given) 31.6 µM [inhibitor, single point]
O=C1CCC/C(=N/NC(=O)c2ccc(NS(=O)(=O)c3cccs3)cc2)C1 100 µM [inhibitor, single point]
O=C(N/N=C/c1cc(Cl)ccc1O)c1cccnc1 100 µM [inhibitor, single point]
O=c1c(-c2ccc(Cl)cc2)nc2cnc(N3CCNCC3)nc2n1Cc1cccs1 31.6 µM [inhibitor, single point]
Cc1ccc2[nH]c(C)c(/C=C/c3cc[n+](C)cc3)c2c1 89.1 µM [inhibitor, partial curve, poor fit]
O=C(O)c1cc2nccc(-c3ccco3)n2n1 56.2 µM [inhibitor, partial curve, poor fit]
Cc1cc(C)c(S(=O)(=O)Nc2cccc(C(F)(F)F)c2)c(C)c1 7.94 µM [inhibitor, partial curve, poor fit]
C=CCn1c(=O)[nH]c2cc(C(=O)N3CCN(c4ccc(C(C)=O)cc4)CC3)ccc2c1=O 28.2 µM [inhibitor, partial curve, poor fit]
COCCNc1nc(-c2ccc(N(C)C)cc2)nc2ccccc12 17.8 µM [inhibitor, partial curve, poor fit]
CCOc1ccc(NC(=O)N2CCC(n3nnc4ccccc43)CC2)cc1 79.4 µM [inhibitor, partial curve, poor fit]
CC1(OC(=O)C2CCCC2)C(=O)C=C2C=C(c3ccc(C#N)cc3)OC=C2C1=O (stereo not given) 56.2 µM [inhibitor, partial curve, poor fit]
C=C1CCC(C)C(C)(CCC2=CCOC2=O)C/C=C\C=C/1C(=O)O (stereo not given) 79.4 µM [inhibitor, partial curve, poor fit]

Potency, inactive:
CCCCNC(=O)c1ccc2c(c1)ncn2-c1cc(OC)ccc1OC
CN(C)c1ccc(C=NC2CCc3ccccc32)cc1 (stereo not given)
CCOC(=O)c1ccc(NC(=O)CSc2ccc3ccccc3n2)cc1
O=C(c1cccc(F)c1)N1CCC[C@@]2(CCN(c3ccccc3)C2)C1
O=C(NCc1cccc(Br)c1)c1cnn(-c2ccc(F)cc2)c1-n1cccc1
CCC(c1nnc(SCC(=O)Nc2cc(C)on2)o1)N(C)C (stereo not given)
Cc1ccc(NC(=O)CN2CCN(S(=O)(=O)c3ccc(C(C)C)cc3)CC2)cc1F
CCC(C)NC(=O)CSc1nc2n[nH]c(C)c2c(=N)n1-c1cc(Cl)ccc1C (stereo not given)
Cc1cc(C(=O)O)ccc1-n1c(C)cc(C=C2C(=O)c3ccccc3C2=O)c1C
COc1ccc(CC(=O)NNS(=O)(=O)c2cccc([N+](=O)[O-])c2)cc1OC
Cc1c(Cl)cccc1NC(=O)C1=COCCO1
CC(=O)NCCn1c(SCc2ccccc2F)nc2ccccc2c1=O
C[n+]1ccnc2ccccc21
Cc1ccc(C(C)C)c(OCC(=O)NCC2(N3CCOCC3)CCCCC2)c1
COc1cc2c(=O)n(Cc3ccccc3)c(=O)n(CC(=O)Nc3cc(C(F)(F)F)ccc3Cl)c2cc1OC
